The results in this text go back to the RNAGym collection of RNA variant scans (doi:10.7554/elife.90254).

To fix the notation:
B1: LINE1-mini (parent)
chain: GGCAGAGCUCAACACAGCGUGGCAAAGUGGCUGUGGCUAGACUGCC

The source gives no read counts; variants with many changes may rest on few reads.

Variants of B1 are the subject of this series. Briefly: self-cleavage, relative activity (ratio to wild type); higher = more cleavage; in vitro, sequencing; the parent is a self-cleaving ribozyme.
As to GGAAGAGCUCAACACUGCUUGGCUAAGUGUCUGUGGCUAGACUGCC, the self-cleavage is 0.04.
Take GGAAGUGCUCAACACAGAGUGGCAAAGUGGCUGUGGCUAGACUGCC: the self-cleavage was 0.1.
The figure for GGAAGAGCUCAACACUGCGUGGCAAAGUGGCAGUGACUAGACUGCC is 0.14; for GGAAGAGCUCAACACAGCGUGGCAACGUGGCCGCGGCUAGACUGCG it is 0.1; for GGAAGUGCUCAAUACAGGGUGGCGAAGUGGCUGUGGCUAGACUGCC it is 0.19.
The value for GGAAGAGCUCCACACAGCGUGGCAAAGUUGCUGUGGCUAGACUGCC was 0.13; that for GGAAGAGCUCAACCCAGCGUGACAAAGUUGCUGUGGCUAGACUGCC was 0.44.
The figure for GGAAGAGCUCGAAACAGCGUGGCAAAGGGGCUGUCGCUAGACUGCC is 0.02; for GGAAGAGAUCAAAACAGCGUAGCAAAGUGGCUGUGGCUAUACUGCC it is 1.89.
Consider GGAAGAGCUCAACGCAGCUUGGCAAAGUGGCUGUGGCUACACUGCC, for which the self-cleavage came to 0.05.
The figure for GGAAGAGCUCAACACAGCGUGGCAAAGUGGCUGUGGCUGGGCUGCC is 0.02.
The value for GGAAGAGCUCACCACAACGUGGUAAAGUGGCUGUGGCUAGACUGCC was 0.02; that for GGAAGAGCUCAACACUGCGUGGCAAAGUGGCUUUGGCUAGACUGCC was 0.29; that for GGAAGAGCUCAACACUGCGUGGCAAAGUGGCUGUGGCUACACUGCC was 0.13.
The value for GGAAGAGAUCAUCACAGCGUGACAAAGUCGCUGUGGCUAGACUGCC was 0.54.
As for GGAAGAGCUCAACACCGCGUGAAAAAGUGGCUGUGGCUAAACCGCC, the self-cleavage stood at 0.04.
The value for GGAAGAGCUCACCACAGCGUGGCAAAGUGGCUGUGGAUAGACUGCC was 0.15; that for GGAAGAGCUCAACGCAGCGUGGCAAAGUGGCUGUGUCUUGACUGCC was 0.01.
The value for GGAAGAGAUCAACCCAGCGUGGCAAAGUGGCUGUGGCUAGACUGCC was 0.12; that for GGAAGAGCUCAUAAUAUCGUGGCAAAGCGGCUGUGGCUAGACUGCC was 0.13.
The value for GGAAGAGCUCCACACAGCGUGGCAGAGUGGCUGUGGCUAGACUGCC was 0.03.
As to GGAAGAGCUCAACACAGCGUGGCGAAGUGGCUGUGGAUAGACUGCC, the self-cleavage came out at 0.23.
The figure for GGAAGAGAUCAAAACAGCGCGGCAAAGUGGCUGUGGCUAGCCUGCC is 0.19.
The value for GGAAGAGCUCGACACAGCAUGGCAAAGUGGCUGUGGCCACACUGCC was 0.03; that for GGAAGAGCUCCACACAGCGUUGCAAAAUGGCUUUGGCUAGACUGCC was 0.02.
The value for GGAAGAGCUCGAUACAGCGUGGCACAGUGGCUGUGGCUAGACUGCC was 0.08; that for GGAAGAGCUCAACACUGCGUGGAAAAGUGACUGUCGCUAGACUGCC was 0.16; that for GGAAGAGAUCAACACCCCGUGGCAAAGUGGCUGUGGCUAGACUGCA was 0.05.
Turning to GGAAGAGCUCAACGCAGCGUGGCAAAGUGGCUGUUGCUAGACUGCC, the self-cleavage was found to be 0.49.
The figure for GGAAGAGCUCAGCACAGCGUGGCAAAGUCGCCGUGGCUAGACUGCC is 0.85; for GGAAGAGCUCCACAUAGCGAGGCAAAGUGGCUGUGGCUAGACUGCC it is 0.03; for GGAAGAGCUCAACCCAGCGUGGCCAAGUGGCUGUGGCUAGCCUGCA it is 0.06.
The value for GGAAGAGCUCAACACGGCGUGGCAAAGUGGCUGUAGCUAGACUGCC was 0.21.
The value for GGAAGAGCUCAACACAGCGUGGCAGAGUGGCCGUGGCUAGACUGCC was 0.1; that for GGAAGAGCUCAACACAGCGUGGCAAGGUGUCUGUAUCUAGACUACC was 0.07; that for GGAAGAGAUCAACAAAGCGUGGCAAAGUGGCUGUGGCUAGUCUGCC was 0.64.
Take GGAAGAGCUCAACACUGCGUGGCAAAGUGCCUGUAGCUAGACUGCC: the self-cleavage was determined as 0.07.
The value for GGAAGAGCUCUACACAGCGUGGCAAAGUGGCUGUGGCUAGACUCCC was 0.04.
With GGAAGAGCUCAGCACAGCGUGGCAAAGUGGCUGUGGCUAGACUGCA, the self-cleavage came out at 0.27.
The figure for GGAAGAGCUCAACACAGCGUGGCAAAGUGGCUGUGGCUAGUCUGAC is 0.19.
The figure for GGAAGAGCUCAUCACAGCGUGGCCAAGUGGCUCUGGCUAGACUGCC is 0.09; for GGAAGAGCUCAACACAGCGUGGCAAGGUGGCUGUGGCCAGAGUGCC it is 0.19; for GGAAGAGCUCAACACAGCGUGGCUAAGUUGCUGUGGCUAGACUGCC it is 0.1.
The value for GGAAGAGCUCAACACAGCGUGGCAACGUGGCUGUACCUAAACUGCC was 0.1; that for GGAAGAGAUCAACAAAGCGUGGCAAAGUGGCUGUGGCUAGACUGCC was 0.6; that for GGAAGAGAUCAACAUAGCGUGGCAAAGUGGCUGUGGCUAGACUGCC was 0.66.
Regarding GGAAGAGCUCAACACAGCGUGGCCAAGUGGCUGUGGCUAGACUGCU, the self-cleavage was 0.13.
The value for GGAAGAGCUCUAGACAGCGUGGCAAAGUGGCUCUGGCUAGACACCC was 0.01.
The figure for GGAAGAGCUCAGCACAGAGUGGCAAAGUGGCUGUGGCUAGACUACC is 0.04.
The figure for GGAAGAGCUCAACACAGCGUGGCAUAGUGACUGUGGCUAGAUUGCC is 0.18.
As for GGAAGAGCUCAACACAGCGUGGCAACGUGGUUGUGGCUAUACUUCC, the self-cleavage came to 0.01.
The value for GGAAGAGCUCAUCACAGUCUGGUAAAGUAGCUGUUGCUAGACUGCC was 0.22; that for GGAAGAGCUCCACACAGCGUGGCAAUGUGGAUGUGGCUAGACUGCC was 0.02.
As for GGAAGAGCUCAACCCAGCGUUGCAAAGUGGUAGUGGCUAGACUGCC, the self-cleavage turned out to be 0.13.
The figure for GGAAGAGCUCAGCACAGCGUGGCAAAAUGGCUGUGGCUAGACUGCC is 0.25; for GGAAGAGCUCAUCCCAGCGUGGCUAAGUGGCUGUGGCUAGACUCCC it is 0.06.
